Test results from the supplement of paper PMC12217912.
This is one part of the list. The full chains were built here from the parent and the listed change. Inactive controls read about 0.05.

B1: TEV protease; numbered along this chain (parent)
chain: MGESLFKGPRDYNPISSSICHLTNESDGHTTSLYGIGFGPFIITNKHLFRRNNGTLVVQSLHGVFKVKDTTTLQQHLVDGRDMIIIRMPKDFPPFPQKLKFREPQREERICLVTTNFQTKSMSSMVSDTSCTFPSGDGIFWKHWIQTKDGQCGSPLVSTRDGFIVGIHSASNFTNTNNYFTSVPKNFMELLTNQEAQQWVSGWRLNADSVLWGGHKVFMVKPEEPFQPVKEATQL

Variants of: B1
Experiment: raw area under fraction-flipped curve 0-4 h after induction (AUC4h, not background-subtracted), DNA-recorder readout of cleavage of the substrate (dimensionless); higher = more cleavage of the substrate by the protease variant
Details: temperature: 34 °C; time window: 0-4 h after rhamnose induction
Method: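 In vivo DNA recorder in E. coli TOP10(DE3) ΔrhaA at 34 °C. Each TEVp single-site mutant (parent TEVp 0) is paired with a single-site variant of the 7-mer TEVs (canonical ENLYFQ|S). The substrate sits between flexible linkers in a Bxb1-sfGFP-TEVs-SsrA fusion, so cleavage stabilises Bxb1 and speeds flipping of a recombination array, read by NGS. The value is the raw area under the fraction-flipped curve over 0-4 h after rhamnose induction (AUC4h), with ≥20 reads per time point. It is not background-subtracted; inactive controls average about 0.047.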
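Also: Bxb1 expression induced with 0.2% (w/v) L-rhamnose at OD600 near 0.5, cultures sampled hourly, flipped fraction per protease–substrate barcode pair counted by paired-end Illumina sequencing.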

Variant	area with substrate ENLYAQS	area with substrate ENLYDQS	area with substrate ENLYGQS	area with substrate ENLYHQS	area with substrate ENLYKQS	area with substrate ENLYLQS	area with substrate ENLYNQS	area with substrate ENLYPQS	area with substrate ENLYQQS	area with substrate ENLYTQS	area with substrate ENLYVQS	area with substrate ENLYEQS	area with substrate ENLYIQS	area with substrate ENLYRQS	area with substrate ENLYWQS	area with substrate ENLYCQS	area with substrate ENLYMQS	area with substrate ENLYYQS	area with substrate ENLYSQS
MGESLFKGPRDYNPISSSICHLTNESDGHTTSLYGIGFGPFIITNKHLFRRNNGTLVVQSLHGVFKVKDTTTLQQHLVDGRDMIIIRMPKDFPPFPQKLKFREPQREERICLVTTNFQTKSMSSMVSDTSCTFPSGDGIFWKHWIQTKDGQCGSPLVSTRDGFIVGIHSASNFTNTNNYFTSVPKNFMELLTNQEAQQWVSGWRLNADSVLWGGNKVFMVKPEEPFQPVKEATQL [H215N]	0.0671	0.0613	0.0604	0.0808	0.0455	0.047	0.0723	0.0609	0.0734	0.0665	0.0597	–	–	–	–	–	–	–	–
MGESLFKGPRDYNPISSSICHLTNESDGHTTSLYGIGFGPRIITNKHLFRRNNGTLVVQSLHGVFKVKDTTTLQQHLVDGRDMIIIRMPKDFPPFPQKLKFREPQREERICLVTTNFQTKSMSSMVSDTSCTFPSGDGIFWKHWIQTKDGQCGSPLVSTRDGFIVGIHSASNFTNTNNYFTSVPKNFMELLTNQEAQQWVSGWRLNADSVLWGGHKVFMVKPEEPFQPVKEATQL [F41R]	0.0553	0.0497	0.0631	0.0448	0.0531	0.0505	0.0494	0.0484	0.062	–	0.0653	0.0567	0.0583	0.0555	0.0554	–	–	–	–
MGESLFKGPRDYNPISSSICHLTNESDGHTTSLYGIGFGPFIITNKHLFRRNNGTLVVQSLHGVFKVKDTTTLQQHLVDGRDMIIIRMPKDFPPFPQKLKFREPQREERICLVTTNFQTKSMSSMVSDTSCTFPSGDGIFWKMWIQTKDGQCGSPLVSTRDGFIVGIHSASNFTNTNNYFTSVPKNFMELLTNQEAQQWVSGWRLNADSVLWGGHKVFMVKPEEPFQPVKEATQL [H143M]	0.0723	0.0657	0.0607	0.0662	0.0541	0.071	0.0701	–	0.0481	0.0668	0.0997	0.0594	0.0862	0.0581	–	0.0626	0.0715	0.0419	–
MGESLFKGPRDYNPISSSICHLTNESDGHTTSLYGIGFGPFIITNKHLFRRNNGTLVVQSLHGVFKVKDTTTLQQHLVDGRDMIIIRMPKDFPPFPQKLKFREPQREERICLVTTNFQTKSMSSMVSDTSCTFPSGDGIFWKHWIQTKDGQCGSPLVSTRDGFIVGIHSASNFTNTNNYFTSVPKNFMELLTNQEAQQVVSGWRLNADSVLWGGHKVFMVKPEEPFQPVKEATQL [W199V]	0.0466	0.072	0.0517	0.0568	0.0599	–	–	0.0589	–	–	0.0682	–	–	0.0596	0.0621	0.0581	–	–	0.0488
MGESLFKGPRDYNPISSSICHLTNESDGHTTSLYGIGFGPFIITNKHLFRRNNGTLVVQSLHGVFKVKDTTTLQQHLVDGRDMIIIRMPKDFPPFPQKLKFREPQREERICLVTTNFQTKSMSSMVSDTSCHFPSGDGIFWKHWIQTKDGQCGSPLVSTRDGFIVGIHSASNFTNTNNYFTSVPKNFMELLTNQEAQQWVSGWRLNADSVLWGGHKVFMVKPEEPFQPVKEATQL [T132H]	0.0807	–	0.0684	0.0549	0.054	–	0.0603	0.0712	–	0.0877	–	0.0598	0.1	0.0515	0.0489	0.0534	–	–	0.0528
MGESLFKGPRDYNPISSSICHLTNESDGHTTSLYGIGFGPFIITNKHLFRRNNGTLVVQSLHGVFKVKDTTTLQQHLVDGRDMIIIRMPKDFPPFPQKLKFREPQREERICLVTTNFQTKSMSSMVSDTSCTFPQGDGIFWKHWIQTKDGQCGSPLVSTRDGFIVGIHSASNFTNTNNYFTSVPKNFMELLTNQEAQQWVSGWRLNADSVLWGGHKVFMVKPEEPFQPVKEATQL [S135Q]	0.0679	0.0598	–	0.0587	0.0632	–	0.0629	0.0516	–	–	0.0708	0.0662	0.0627	0.0592	–	0.0721	0.0688	0.0662	–
MGESLFKGPRDYNPISSSICHLTNESDGHTTSLYGIGFGPFIITNKHLFRRNNGTLVVQSLHGVFKVKDTTTLQQHLVDGRIMIIIRMPKDFPPFPQKLKFREPQREERICLVTTNFQTKSMSSMVSDTSCTFPSGDGIFWKHWIQTKDGQCGSPLVSTRDGFIVGIHSASNFTNTNNYFTSVPKNFMELLTNQEAQQWVSGWRLNADSVLWGGHKVFMVKPEEPFQPVKEATQL [D82I]	0.071	–	0.0461	0.0442	0.022	–	–	0.0181	–	–	–	–	0.0381	–	–	–	0.0414	–	0.0421
MGESLFKGPRDYNPISSSICHLTNESDGHTTSLYGIGFGPFEITNKHLFRRNNGTLVVQSLHGVFKVKDTTTLQQHLVDGRDMIIIRMPKDFPPFPQKLKFREPQREERICLVTTNFQTKSMSSMVSDTSCTFPSGDGIFWKHWIQTKDGQCGSPLVSTRDGFIVGIHSASNFTNTNNYFTSVPKNFMELLTNQEAQQWVSGWRLNADSVLWGGHKVFMVKPEEPFQPVKEATQL [I42E]	0.0427	0.0447	0.0361	–	0.042	–	0.0437	0.0554	0.0371	0.0436	–	0.0472	–	0.025	0.0623	0.0415	0.0429	–	–
MGESLFKGPRDYNPISSSICHLTNESDGHTTSLYGIGFGPFPITNKHLFRRNNGTLVVQSLHGVFKVKDTTTLQQHLVDGRDMIIIRMPKDFPPFPQKLKFREPQREERICLVTTNFQTKSMSSMVSDTSCTFPSGDGIFWKHWIQTKDGQCGSPLVSTRDGFIVGIHSASNFTNTNNYFTSVPKNFMELLTNQEAQQWVSGWRLNADSVLWGGHKVFMVKPEEPFQPVKEATQL [I42P]	0.0654	0.0354	0.0379	0.0467	0.0294	–	0.0423	0.0402	0.0428	0.0445	0.0564	0.0499	0.0478	–	0.0503	0.0635	–	–	0.043
MGESLFKGPRDYNPISSSICHLTNESDGHTHSLYGIGFGPFIITNKHLFRRNNGTLVVQSLHGVFKVKDTTTLQQHLVDGRDMIIIRMPKDFPPFPQKLKFREPQREERICLVTTNFQTKSMSSMVSDTSCTFPSGDGIFWKHWIQTKDGQCGSPLVSTRDGFIVGIHSASNFTNTNNYFTSVPKNFMELLTNQEAQQWVSGWRLNADSVLWGGHKVFMVKPEEPFQPVKEATQL [T31H]	0.0695	0.0653	0.0769	0.0469	0.0691	–	0.061	–	0.0681	0.0767	0.104	0.0363	0.103	–	0.062	–	0.0716	–	0.0668
MGESLFKGPRDYNPISSSICHLTNESDGHTTSLYGIGFGPFIITNKHLFRRNNGTLVVQSLHGVFKVKDTTTLQQHLVDGRDMIIIRMPKVFPPFPQKLKFREPQREERICLVTTNFQTKSMSSMVSDTSCTFPSGDGIFWKHWIQTKDGQCGSPLVSTRDGFIVGIHSASNFTNTNNYFTSVPKNFMELLTNQEAQQWVSGWRLNADSVLWGGHKVFMVKPEEPFQPVKEATQL [D91V]	0.0455	–	0.0562	0.0624	0.0734	–	0.0519	–	0.0587	0.075	0.102	–	–	0.0393	0.086	–	0.0807	–	0.0673
MGESLFKGPRDYNPISSSICHLTNESDGHTTSLYGIGFGPFIITNKHLFRRNNGTLVVQSLHGVFKVKDTTTLQQHLVDGRDMIIIRMPKDFPPFPQKLKFREPQREERICLVTTNFQTKSMSSMVSDTSCTFPSGDGIFWKHWIQTKDGQCGSPLVSTRDGFIVGIHSASNFTNTNNYFTSVPKNFDELLTNQEAQQWVSGWRLNADSVLWGGHKVFMVKPEEPFQPVKEATQL [M188D]	0.0694	0.0613	0.0651	0.0688	0.0502	–	0.0646	–	0.0664	0.0714	0.0942	–	0.118	0.0703	0.0839	–	0.103	0.0768	0.0777
MGESLFKGPRDYNPISSSICHLTNESDGHTTSLYGIGFGPFIITNKHLFRRNNGTLVVQSLHGVFKVKDTTTLQQHLVDGRDMIIIRMPKDFPPFPQKLKFREPQRECRICLVTTNFQTKSMSSMVSDTSCTFPSGDGIFWKHWIQTKDGQCGSPLVSTRDGFIVGIHSASNFTNTNNYFTSVPKNFMELLTNQEAQQWVSGWRLNADSVLWGGHKVFMVKPEEPFQPVKEATQL [E108C]	0.0754	0.0671	–	0.059	0.0545	–	0.0555	0.0662	–	0.064	0.0805	–	0.0818	0.0677	0.0584	–	0.0677	0.0554	0.0525
MGESLFKGPRDYNPISSSICHLTNESDGHTTSLEGIGFGPFIITNKHLFRRNNGTLVVQSLHGVFKVKDTTTLQQHLVDGRDMIIIRMPKDFPPFPQKLKFREPQREERICLVTTNFQTKSMSSMVSDTSCTFPSGDGIFWKHWIQTKDGQCGSPLVSTRDGFIVGIHSASNFTNTNNYFTSVPKNFMELLTNQEAQQWVSGWRLNADSVLWGGHKVFMVKPEEPFQPVKEATQL [Y34E]	0.0545	0.0533	–	–	–	–	0.0665	0.059	–	–	–	0.0597	–	–	–	–	0.0753	0.0604	0.0722
MGESLFPGPRDYNPISSSICHLTNESDGHTTSLYGIGFGPFIITNKHLFRRNNGTLVVQSLHGVFKVKDTTTLQQHLVDGRDMIIIRMPKDFPPFPQKLKFREPQREERICLVTTNFQTKSMSSMVSDTSCTFPSGDGIFWKHWIQTKDGQCGSPLVSTRDGFIVGIHSASNFTNTNNYFTSVPKNFMELLTNQEAQQWVSGWRLNADSVLWGGHKVFMVKPEEPFQPVKEATQL [K7P]	0.0763	0.0576	0.0305	–	0.0707	0.0889	–	0.0676	–	0.0999	–	0.0826	0.0743	0.0623	0.069	–	0.0576	–	–
MGESLFKGPRDYNPISSSICHLTNESDGHTTSLYGIGFGPFIITNKHLFRRNNGTLVVQSLHGVFKVKDTTTLQQHLVDGRDMIIIRMPKDFPPFPQKLKFREPQREERICLVTTNFQTKSMSSMVSDTSCTFPSGDGIFWKHWIQTKDGQCGSPLVSTRDGFIVGIHSASNFTNTNNYFTSVPKNFMELLTNQEAQQWVSGWRLNADSVLWGGHKVTMVKPEEPFQPVKEATQL [F218T]	0.0703	0.0618	0.0616	0.0544	–	–	0.0581	0.0581	–	–	0.101	–	0.0947	0.0379	0.0715	–	0.0553	–	–
MGESLFKGPRDYNPISSSICHLTNESDGHTTSLYGIGFGPFIITNKHLFRRNNGTLVVQSLHGVFKVKDTTTLQQHLVDGRDMIIIRMPKDFPPFPQKLKFREPQREEFICLVTTNFQTKSMSSMVSDTSCTFPSGDGIFWKHWIQTKDGQCGSPLVSTRDGFIVGIHSASNFTNTNNYFTSVPKNFMELLTNQEAQQWVSGWRLNADSVLWGGHKVFMVKPEEPFQPVKEATQL [R109F]	0.0674	–	0.0643	0.0718	0.0533	–	0.0659	0.0656	0.0463	–	0.098	0.0636	0.12	0.0709	0.102	0.0933	0.0842	0.0598	0.0626
MGESLFKGPRDYNPISSSICHLTNESDGHTTSLYGIGFGPFIITNKHLFRRNNGTLVVQSLHGVFKVKDTTTLQQHLVDGRDMIIIRMPKDFPPFPQKLKFREPQREERICLVTTNFQTKSMSSMVSDTSCTFPSGDGIFWKHWIQTKDGQCGSPLVSTRDGFIVGIHSASNFTNTNNYFTSVPKNFMELLTNQEAQQWVSGWRLNADSVLWGGHKVFMVKPEEPFQPVKEATQG [L235G]	0.0806	–	–	0.0873	0.0628	–	–	–	0.086	0.0944	–	0.0847	–	–	–	–	0.0841	0.0621	0.059
